Reference: PubChem BioAssay AID1346428 (National Center for Advancing Translational Sciences (NCATS), 2018)
The whole screen tested about 48,000 compounds, of which about 1,200 (2.5%) were called active. Not shown: some 2% with an inconclusive outcome.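 How the source made its calls: active means activation of at least 60% and not above a set upper limit (about 1 call in 100 departs from these limits); inconclusive means activation of 40% to 60%, or above that upper limit; inactive means activation under 40%.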 This is one part of the list.

target: Probable G-protein coupled receptor 32 (Homo sapiens) (UniProt O75388); experiment: qHTS for Agonists of Human Resolvin D1 Receptor DRV1; details: CHO-K1 GPR32 beta-arrestin PathHunter luminescence, 90 min; at 76.9 µM; active compounds read high; zero percent set by DMSO-only wells
Sequence of UniProt O75388 (O75388 whole entry, looked up): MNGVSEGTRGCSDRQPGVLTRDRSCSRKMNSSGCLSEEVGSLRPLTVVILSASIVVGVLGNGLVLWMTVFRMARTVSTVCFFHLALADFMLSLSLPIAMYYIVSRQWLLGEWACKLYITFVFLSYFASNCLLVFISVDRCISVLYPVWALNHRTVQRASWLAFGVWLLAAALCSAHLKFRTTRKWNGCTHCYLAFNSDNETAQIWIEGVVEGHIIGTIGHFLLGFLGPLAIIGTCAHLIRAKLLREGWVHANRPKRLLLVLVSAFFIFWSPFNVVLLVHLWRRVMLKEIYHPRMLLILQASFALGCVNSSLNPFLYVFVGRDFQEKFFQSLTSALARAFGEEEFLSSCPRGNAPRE
Procedure, shortened: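 Beta-arrestin recruitment read-out: luminescence from complemented beta-Gal in CHO-K1 GPR32 PathHunter cells, measured 1 h after detection reagent at ambient temperature following 90 min compound exposure at 37 °C; DMSO served as basal (EC0) control.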

activation, inactive:
COc1cc(OC)cc(C(=O)Nc2ccc3nc4n(c(=O)c3c2)CCCCC4)c1 -8.69%
CCCCC(=O)Nc1ccc(OCc2cc(=O)n3c(C)csc3n2)cc1 -3.36%
O=C(NCc1ccccc1Cl)c1c2c(nc3ccccc13)C(=O)N(C1CCCCC1)C2 -14.4%
COC(=O)CCCCCn1c(-c2ccccc2)cn2c3c(=O)n(C)c(=O)n(C)c3nc12 8.61%
CCN(CC)c1ccc(C2C(C(=O)Nc3ccccc3C)=C(C)Nc3ncnn32)cc1 (stereo unspecified) 3.92%
Cc1cccc(CCn2c(=O)c3ccccc3n(CC(=O)Nc3ccccc3F)c2=O)c1 10%
Cc1cc2c(cc1NC(=O)c1ccccc1Cl)n(C)c(=O)c(=O)n2C 8.08%
Cc1ccn2c(=O)cc(CSc3nnc(C)s3)nc2c1 -15.9%
COc1ccc(OC)c(C(=O)CSc2ncc3c(n2)-c2ccccc2N(Cc2ccccc2C)S3(=O)=O)c1 -12.1%
CCN(Cc1ccccc1)Cc1c(O)ccc2c(=O)c(-c3ccc(Cl)cc3)c(C(F)(F)F)oc12 -0.294%
Cc1ccc(C)c(N2CCN(CCCNC(=O)c3cnn(-c4ccccc4)c3C3CCN(C(=O)OC(C)(C)C)CC3)CC2)c1 -18.1%
Cc1cccc(-c2noc(-c3ccccc3OCC(=O)Nc3ccccc3[N+](=O)[O-])n2)c1 -9.05%
Cc1ccn2cc(CNC(=O)c3cccc(C(F)(F)F)c3)nc2c1 -14.7%
COc1ccccc1Nc1c2c(nc3ccc(NC(=O)c4ccccc4F)cc13)CCCC2 -34.1%
CCN(CC)CCCNC(=O)c1cn(CC(C)C)c(=O)c2c1c1ccccc1n2C -1.07%
Cc1ccc2nc(-c3ccsc3)c(Nc3ccc(Cl)cc3)n2c1 -29.5%
COc1ccc(-c2nnc(SCC(=O)N3CCc4ccccc43)o2)cc1OC 2.71%
COc1ccc(-c2nc3scc(CCNS(=O)(=O)c4ccc(Oc5ccccc5)cc4)n3n2)cc1 -13.7%
CC(=O)c1cccc(NC(=O)[C@H]2O[C@@H]3OC(C)(C)O[C@@H]3[C@H]3OC(C)(C)O[C@H]32)c1 -77%
COc1ccc(OCC(=O)N(Cc2sccc2C)C2CCS(=O)(=O)C2)cc1 (stereo unspecified) -12.8%
CCOC(=O)c1ccc(NC(=O)C(C)Sc2nc(=O)cc(N)n2CCc2ccccc2)cc1 (stereo unspecified) 10.6%
Cc1nn(C)c(C)c1S(=O)(=O)N(CC(=O)N1CCN(c2ccccc2)CC1)c1ccc(C(C)C)cc1 -13%
CCOc1ccccc1NC(=O)C1CCN(S(=O)(=O)c2ccc3[nH]c4c(c3c2)CCCCC4)CC1 -7.15%
Cc1cc(C)n(-c2nnc(Nc3cc(Cl)ccc3C)c3ccccc23)n1 -7.63%
COc1ccccc1NC(=O)c1cc2c([nH]c1=O)CC(C)(C)CC2=O 17.7%
Cc1ccc(C)c(NC(=O)Cn2c(=O)ccc3cc(S(=O)(=O)N4CCCC4)ccc32)c1 30.1%
O=C1C2=C(Nc3ccccc3SC2c2ccccc2C(F)(F)F)c2ccccc21 (stereo unspecified) -57.2%
O=C(NCc1cccs1)c1ccc(CSc2nc3cccnc3n2Cc2ccccc2)cc1 -32.2%
O=C(CCn1c(=O)c2cccn2c2ccccc21)Nc1ccc(F)cc1 -15.7%
CCCCCNC(=O)c1ccc2c(c1)nc(C)n2-c1cccc(C)c1 -3.74%
Cc1ccccc1NC(=O)c1ccc(F)c(S(=O)(=O)N(C)C2CCCCC2)c1 -19.2%
Cc1nc(-c2ccc(C)c(S(=O)(=O)N3CCC(C(=O)Nc4ccc(Cl)cc4)CC3)c2)no1 -3.85%
CCC1CCCCN1CCCNC(=O)c1cc2c(=O)n(CC)c3ccccc3c2s1 (stereo unspecified) -2.46%
COc1ccc(NC(=O)C2CCCN(S(=O)(=O)c3cccs3)C2)cc1 (stereo unspecified) 7.84%
CC1Cc2cc(S(=O)(=O)N(C)c3ccc(Br)cc3)ccc2N1C(=O)C1CC1 (stereo unspecified) -3.22%
Fc1ccc(Cc2cn3cc(-c4ccc(Cl)cc4)nc3s2)cc1 36.1%
N#C/C(=C/c1ccc(Cl)cc1Cl)c1nc2ccccc2c(=O)[nH]1 19.4%
COc1ccc(CNC(=O)C2CCN(S(=O)(=O)c3ccc(C)cc3)CC2)cc1 8.66%
CCN1CCN(C(c2ccccc2)c2c(O)cc(C)n(Cc3ccco3)c2=O)CC1 (stereo unspecified) -17.7%
CCOc1ccc(CCNC(=O)c2cccc(-n3c(C)nc4cccnc43)c2)cc1 2.86%
COc1ccc(-c2nnc3c4ccccc4c(-c4ccccc4)nn23)cc1 -9.64%
COC(=O)c1c(N)n(-c2ccc(OC)c(Cl)c2)c2nc3ccccc3nc12 47.2%
CCOC(=O)c1nnn(CC(=O)NC(=O)Nc2cccc(CC)c2)c1C(=O)OCC 34.6%
CCN(CC)C(=O)c1sc2c(c1C)c(=O)n(-c1ccc(Cl)c(Cl)c1)c(=O)n2CC(=O)Nc1cccc(OC)c1 -12.4%
COc1ccc(Cn2ccc3nc(C)c(C(=O)Nc4ccc(OC(F)(F)F)cc4)cc3c2=O)cc1 -22.5%
CCOC(=O)c1c(Nc2cc(C)cc(C)c2)nnc(-c2ccccc2)c1-c1ccccc1 11%
C[C@H](N)C(=O)N[C@@H](C)C(=O)NC1[C@H]2CN(c3nc4c(cc3F)c(=O)c(C(=O)O)cn4-c3ccc(F)cc3F)C[C@@H]12 (stereo partly specified) -1.22%
CCCCC(=O)OC1=C(C(=O)c2ccccc2)N(CC)S(=O)(=O)c2ccccc21 -31.5%
CSc1ccc(CNC(=O)c2cc3cc(S(=O)(=O)N4CCCCC4)ccc3n2C)cc1 -12%
CC1CCN(S(=O)(=O)c2ccc3nc(Nc4ccc(C#N)cc4)ccc3c2)CC1 -15.2%
COc1cccc(CNC(=O)C2CCN(S(=O)(=O)N3CCC(C)CC3)CC2)c1 -5.69%
Cc1cccc(OCCSc2nc(-c3cccs3)nc3cc(=O)[nH]n23)c1 -26.9%
COc1ccccc1N1CCN(S(=O)(=O)c2c(C)nc3sc(C)c(C)n3c2=O)CC1 -1.34%
COc1ccccc1CNS(=O)(=O)c1ccc(F)c(C(=O)Nc2cc(Cl)ccc2OC)c1 -19.6%
O=C(O)c1cc([N+](=O)[O-])ccc1NCCCc1ccccc1 -8.45%
O=C(NCC(c1cccnc1)N1CCc2ccccc2C1)C(=O)Nc1ccccc1 (stereo unspecified) -8.06%
COc1cccc2c1Oc1ncccc1N(C(=O)Nc1cccc(Cl)c1)C2 -23.9%
CC(=O)CC(c1ccc([N+](=O)[O-])cc1)c1c(O)c2ccccc2oc1=O (stereo unspecified) -47.1%
CCCCCCCCNC(C)C(O)c1ccc(SC(C)C)cc1 (stereo unspecified) 42.9%
CCCCC(=O)OC1=C(C(=O)c2ccccc2)N(C)S(=O)(=O)c2ccccc21 -27.7%
COc1ccc(CNS(=O)(=O)c2cnc(N)nc2)cc1 -6.96%
Cc1cccc(CNC(=O)c2ccc3c(c2)N(C)C(=O)C2CCCCN32)c1 (stereo unspecified) 3.18%
O=C(Nc1ccc(F)cc1F)c1cnn(-c2ccc(F)cc2)c1-n1cccc1 -1.86%
CCOc1ccccc1NC(=O)CN1c2ccccc2S(=O)(=O)c2ccccc21 4.15%
Cc1ccc(CNC(=O)c2cc(S(=O)(=O)N3CCCCCC3)cn2C)cc1 -1.58%
Cn1cc(CCCC(=O)NCc2ccccc2Cl)c2ccccc21 -23.2%
CCOC(=O)c1c(NC(=O)CSc2nc(-c3ccccc3)cc(C(F)(F)F)n2)sc(C)c1C -2.26%
CC(=O)Nc1nnc(SCc2cc(=O)c3cccc(Cl)c3[nH]2)s1 -6.46%
CCOc1ccc(CCNC(=O)Cn2nnc(-c3ccc(C(F)(F)F)cc3)n2)cc1OCC 3.25%
CC(=O)N1c2ccc(S(=O)(=O)N3CCCCCC3)cc2CC1C(=O)NCc1ccccc1F (stereo unspecified) -1.25%
CCOc1ccc(OCC)c(Nc2cc(C)nc3nc(-c4ccco4)nn23)c1 -17.5%
CCC1(O)CC2CN(CCc3c([nH]c4ccccc34)[C@@](C(=O)OC)(c3cc4c(cc3OC)N(C=O)C3[C@]45CCN4CC=C[C@@](CC)([C@@H](OC(C)=O)[C@]3(O)C(=O)OC)[C@H]45)C2)C1 (stereo partly specified) -13%
Cc1ccc(CNc2ccc(-c3nc(-c4ccccn4)no3)cc2[N+](=O)[O-])cc1 -30.6%
O=C(c1ccc([N+](=O)[O-])cc1)N1CCN(c2ccc(Nc3ccccc3)nn2)CC1 -9.7%
CCOc1ccc(CCNC(=O)CN2C(=O)c3cccnc3Oc3ccc(Cl)cc32)cc1 -7.66%
CCOC(=O)c1c(S(=O)(=O)N2CCC(C(=O)Nc3ccc(OCC)cc3)CC2)c(C)n(C)c1C 0.349%
CCCCN(CCCC)CCNC(=O)c1cn(C)c2ccc(S(=O)(=O)N3CCCC3)cc2c1=O 1.13%
CCc1ccc(C2c3c(-c4cc(C)ccc4O)n[nH]c3C(=O)N2Cc2cccnc2)cc1 (stereo unspecified) -17.4%
Cc1ccc(OCc2nc(-c3ccc(C(=O)N4CCN(c5ccccc5)CC4)cc3)oc2C)cc1 4.7%
O=C(NCc1ccccc1Cl)c1ccc(Nc2nc3ccccc3n3nnnc23)cc1 -7.84%
COc1ccc(OC)c(NC(=O)N2c3ccccc3Sc3ccccc32)c1 -20.8%
